The list shows a part of the results. Single values are uncertain, as repeats are few or missing.
What was measured:
Assay in all cases: cell count relative to DMSO control; melanoma cells; higher = more viable cells
Conditions in all cases: library dose: low library concentration; 72 h
MZ2-MEL = test system: MZ2-MEL
MeWo = test system: MeWo
RPMI7951 = test system: RPMI7951
RVH-421 = test system: RVH-421
SkMel28 = test system: SkMel28
SkMel30 = test system: SkMel30
SkMel5 = test system: SkMel5
UACC257 = test system: UACC257
UACC62 = test system: UACC62
SkMel2 = test system: SkMel2
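Further: cell number obtained by counting DAPI-stained nuclei in high-throughput microscope images with image analysis software, screen run in 1,536-well plates.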

O=C(Nc1ccccc1)c1cc([N+](=O)[O-])ccc1Cl + COc1cc2ncnc(Nc3ccc(Oc4ccccc4)cc3)c2cc1OC [SrcI1] (first compound 2 µM, partner dose 2 µM)
cell count (MZ2-MEL): 80.9%
cell count (MeWo): 99.5%
cell count (RPMI7951): 125%
cell count (RVH-421): 111%
cell count (SkMel28): 94.7%
cell count (SkMel30): 92%
cell count (SkMel5): 104%
cell count (UACC257): 117%
cell count (UACC62): 107%

Cc1cc(N2CCOCC2)cc2[nH]c(-c3c(NC[C@@H](O)c4cccc(Cl)c4)cc[nH]c3=O)nc12 + Cn1cc(/C=C2\C(=O)Nc3cccnc32)c2ccccc21 [GW441756] (first compound 0.2 µM, partner dose 0.4 µM)
cell count (MZ2-MEL): 99.2%
cell count (MeWo): 95.7%
cell count (RPMI7951): 124%
cell count (RVH-421): 85.1%
cell count (SkMel28): 87.4%
cell count (SkMel30): 81.4%
cell count (SkMel5): 59.6%
cell count (UACC257): 85.3%
cell count (UACC62): 94.2%

Cn1nnc2c(C(N)=O)ncn2c1=O [temozolomide] + Cn1cc(/C=C2\C(=O)Nc3cccnc32)c2ccccc21 [GW441756] (first compound 2 µM, partner dose 0.4 µM)
cell count (MZ2-MEL): 84.4%
cell count (MeWo): 108%
cell count (RPMI7951): 98.2%
cell count (RVH-421): 91.1%
cell count (SkMel28): 77.3%
cell count (SkMel30): 78.1%
cell count (SkMel5): 78.9%
cell count (UACC257): 106%
cell count (UACC62): 72.7%

Cc1cc(N2CCOCC2)cc2[nH]c(-c3c(NC[C@@H](O)c4cccc(Cl)c4)cc[nH]c3=O)nc12 + O=C1NC(=O)/C(=C/c2ccc(-c3ccc(F)cc3O)o2)S1 [AS252424] (first compound 0.2 µM, partner dose 1 µM)
cell count (MZ2-MEL): 106%
cell count (MeWo): 110%
cell count (RPMI7951): 102%
cell count (RVH-421): 150%
cell count (SkMel28): 92.6%
cell count (SkMel30): 71.3%
cell count (SkMel5): 98.6%
cell count (UACC257): 94.8%
cell count (UACC62): 117%

O=C(Nc1ccccc1)c1cc([N+](=O)[O-])ccc1Cl + Oc1nc(-c2ccc(C(F)(F)F)cc2)nc2c1CSCC2 [XAV939] (first compound 2 µM, partner dose 2 µM)
cell count (MZ2-MEL): 97.2%
cell count (MeWo): 83.3%
cell count (RPMI7951): 101%
cell count (RVH-421): 79.3%
cell count (SkMel28): 91.8%
cell count (SkMel30): 99.6%
cell count (SkMel5): 88%
cell count (UACC257): 91.2%
cell count (UACC62): 89%

O=C(Nc1ccccc1)c1cc([N+](=O)[O-])ccc1Cl + COC(=O)c1sccc1S(=O)(=O)Nc1ccc(Nc2ccccc2)cc1OC [GSK0660] (first compound 2 µM, partner dose 1 µM)
cell count (MZ2-MEL): 93.1%
cell count (MeWo): 93%
cell count (RPMI7951): 105%
cell count (RVH-421): 96.8%
cell count (SkMel28): 99.7%
cell count (SkMel30): 97.6%
cell count (SkMel5): 97.9%
cell count (UACC257): 82.6%
cell count (UACC62): 90.2%

Cn1nnc2c(C(N)=O)ncn2c1=O [temozolomide] + CC(C)CCN1c2nc(Nc3cc(F)c(O)c(F)c3)ncc2N(C)C(=O)C1C [BID1870] (first compound 2 µM, partner dose 0.2 µM)
cell count (MZ2-MEL): 97.5%
cell count (MeWo): 96.8%
cell count (RPMI7951): 127%
cell count (RVH-421): 97.4%
cell count (SkMel28): 84.4%
cell count (SkMel30): 73.6%
cell count (SkMel5): 101%
cell count (UACC257): 93.1%
cell count (UACC62): 79.7%

Cn1nnc2c(C(N)=O)ncn2c1=O [temozolomide] + COc1ccc(COc2ccc(Cc3cnc(N)nc3N)cc2OC)cc1 [GW2580] (first compound 2 µM, partner dose 1 µM)
cell count (MZ2-MEL): 85.7%
cell count (MeWo): 100%
cell count (RPMI7951): 102%
cell count (RVH-421): 92.8%
cell count (SkMel28): 69%
cell count (SkMel30): 102%
cell count (SkMel5): 90.4%
cell count (UACC257): 59%
cell count (UACC62): 82.8%

Cn1nnc2c(C(N)=O)ncn2c1=O [temozolomide] + CCCCCCCCCCCC1=C(O)C(=O)C=C(O)C1=O [Embelin] (first compound 2 µM, partner dose 1.2 µM)
cell count (MZ2-MEL): 85.8%
cell count (MeWo): 103%
cell count (RPMI7951): 106%
cell count (RVH-421): 104%
cell count (SkMel28): 88.6%
cell count (SkMel30): 85.4%
cell count (SkMel5): 109%
cell count (UACC257): 120%
cell count (UACC62): 80.9%

Cc1cc(N2CCOCC2)cc2[nH]c(-c3c(NC[C@@H](O)c4cccc(Cl)c4)cc[nH]c3=O)nc12 + COc1ccc(-c2ccc3c(N4CCOCC4)nc(N4C[C@@H](C)O[C@@H](C)C4)nc3n2)cc1CO [KU0063794] (first compound 0.2 µM, partner dose 0.02 µM)
cell count (MZ2-MEL): 96.6%
cell count (MeWo): 86%
cell count (RPMI7951): 99.7%
cell count (RVH-421): 97.2%
cell count (SkMel28): 95.7%
cell count (SkMel30): 80.8%
cell count (SkMel5): 92.1%
cell count (UACC257): 70.3%
cell count (UACC62): 91.1%

Cn1nnc2c(C(N)=O)ncn2c1=O [temozolomide] + COc1ccc(-c2ccc3c(N4CCOCC4)nc(N4C[C@@H](C)O[C@@H](C)C4)nc3n2)cc1CO [KU0063794] (first compound 2 µM, partner dose 0.02 µM)
cell count (MZ2-MEL): 86.7%
cell count (MeWo): 106%
cell count (RPMI7951): 117%
cell count (RVH-421): 98.6%
cell count (SkMel28): 75.7%
cell count (SkMel30): 97.2%
cell count (SkMel5): 101%
cell count (UACC257): 88.9%
cell count (UACC62): 78.7%

O=C(Nc1ccccc1)c1cc([N+](=O)[O-])ccc1Cl + O=c1cc(-c2cccc3c2Sc2ccccc2S3)oc(N2CCOCC2)c1 [KU55933] (first compound 2 µM, partner dose 1 µM)
cell count (MZ2-MEL): 102%
cell count (MeWo): 90.3%
cell count (RPMI7951): 96.6%
cell count (RVH-421): 673%
cell count (SkMel28): 86.5%
cell count (SkMel30): 89.7%
cell count (SkMel5): 87.3%
cell count (UACC257): 94%
cell count (UACC62): 113%

Cn1nnc2c(C(N)=O)ncn2c1=O [temozolomide] + Cc1cc([N+](=O)[O-])ccc1NS(=O)(=O)c1cc(Cl)ccc1Cl [FH535] (first compound 2 µM, partner dose 1 µM)
cell count (MeWo): 97.4%
cell count (RPMI7951): 92.4%
cell count (RVH-421): 91.7%
cell count (SkMel28): 97.4%
cell count (SkMel30): 76.3%
cell count (SkMel5): 84.6%
cell count (UACC257): 75.1%
cell count (UACC62): 84.8%

O=C(Nc1ccccc1)c1cc([N+](=O)[O-])ccc1Cl + O=S(=O)(c1ccccc1)N(CC(F)(F)F)c1ccc(C(O)(C(F)(F)F)C(F)(F)F)cc1 [T0901317] (first compound 2 µM, partner dose 1.4 µM)
cell count (MeWo): 85.2%
cell count (RPMI7951): 110%
cell count (RVH-421): 84.8%
cell count (SkMel28): 82%
cell count (SkMel30): 91.3%
cell count (SkMel5): 78.4%
cell count (UACC257): 93.7%
cell count (UACC62): 83.5%

O=C(Nc1ccccc1)c1cc([N+](=O)[O-])ccc1Cl + Cc1cc([N+](=O)[O-])ccc1NS(=O)(=O)c1cc(Cl)ccc1Cl [FH535] (first compound 2 µM, partner dose 1 µM)
cell count (MeWo): 80.5%
cell count (RPMI7951): 110%
cell count (RVH-421): 91.4%
cell count (SkMel28): 96.3%
cell count (SkMel30): 99.2%
cell count (SkMel5): 82%
cell count (UACC257): 104%
cell count (UACC62): 89.9%

O=C(O)[C@@H]1[O][Sb](=[O])([O][Sb]2(=[O])[O][C@H]([C@H](O)CO)[C@H](O)[C@H](C(=O)O)[O]2)[O][C@H]([C@H](O)CO)[C@@H]1O (stereo partly specified) [stibogluconate] + COc1cc2ncnc(Nc3ccc(Oc4ccccc4)cc3)c2cc1OC [SrcI1] (first compound 2 µM, partner dose 2 µM)
cell count (MeWo): 104%
cell count (RPMI7951): 104%
cell count (RVH-421): 116%
cell count (SkMel28): 112%
cell count (SkMel2): 113%
cell count (SkMel30): 95%
cell count (SkMel5): 110%
cell count (UACC257): 144%
cell count (UACC62): 120%

O=C(Nc1ccccc1)c1cc([N+](=O)[O-])ccc1Cl + Oc1cc(-c2nc(-c3ccccc3)[nH]c2-c2ccncc2)ccc1Cl [L779450] (first compound 2 µM, partner dose 0.2 µM)
cell count (MZ2-MEL): 71%
cell count (MeWo): 89.1%
cell count (RPMI7951): 108%
cell count (RVH-421): 94.4%
cell count (SkMel28): 87.9%
cell count (SkMel30): 75.4%
cell count (SkMel5): 112%
cell count (UACC257): 92.5%
cell count (UACC62): 78.9%

O=C(O)[C@@H]1[O][Sb](=[O])([O][Sb]2(=[O])[O][C@H]([C@H](O)CO)[C@H](O)[C@H](C(=O)O)[O]2)[O][C@H]([C@H](O)CO)[C@@H]1O (stereo partly specified) [stibogluconate] + Nc1ncn([C@H]2C[C@H](O)[C@@H](CO)O2)c(=O)n1 [decitabine] (first compound 2 µM, partner dose 0.1 µM)
cell count (MeWo): 98.9%
cell count (RPMI7951): 105%
cell count (RVH-421): 90.3%
cell count (SkMel28): 110%
cell count (SkMel2): 106%
cell count (SkMel30): 101%
cell count (UACC62): 64.5%

O=C(Nc1cc(C(F)(F)F)cc(C(F)(F)F)c1)c1cc(Cl)ccc1O + CO[C@H]1C[C@@H]2CC[C@@H](C)[C@@](O)(O2)C(=O)C(=O)N2CCCC[C@H]2C(=O)O[C@H]([C@H](C)C[C@@H]2CC[C@@H](OCCO)[C@H](OC)C2)CC(=O)[C@H](C)/C=C(\C)[C@@H](O)[C@@H](OC)C(=O)[C@H](C)C[C@H](C)/C=C/C=C/C=C/1C [everolimus] (first compound 0.016 µM, partner dose 0.02 µM)
cell count (MZ2-MEL): 73.2%
cell count (MeWo): 60%
cell count (RPMI7951): 78.2%
cell count (RVH-421): 93%
cell count (SkMel28): 54.3%
cell count (SkMel30): 72.6%
cell count (UACC62): 63.7%

O=C(Nc1cc(C(F)(F)F)cc(C(F)(F)F)c1)c1cc(Cl)ccc1O + Cn1c(Nc2ccc(C(F)(F)F)cc2)nc2cc(Oc3ccnc(-c4ncc(C(F)(F)F)[nH]4)c3)ccc21 [CHIR265] (first compound 0.016 µM, partner dose 0.08 µM)
cell count (MeWo): 85.6%
cell count (RPMI7951): 67.9%
cell count (RVH-421): 77%
cell count (SkMel28): 72%
cell count (SkMel2): 83.6%
cell count (SkMel30): 63%
cell count (UACC62): 59.9%

O=C(O)c1ccc2c(c1)nc(Nc1cccc(Cl)c1)c1ccncc12 + C=CCn1c(=O)c2cnc(Nc3ccc(N4CCN(C)CC4)cc3)nc2n1-c1cccc(C(C)(C)O)n1 [MK1775] (first compound 0.4 µM, partner dose 0.02 µM)
cell count (MeWo): 94.1%
cell count (RPMI7951): 100%
cell count (RVH-421): 86.9%
cell count (SkMel28): 89.3%
cell count (SkMel2): 82.6%
cell count (SkMel30): 85.4%
cell count (SkMel5): 82.9%
cell count (UACC257): 113%
cell count (UACC62): 79.7%

Cc1cc(N2CCOCC2)cc2[nH]c(-c3c(NC[C@@H](O)c4cccc(Cl)c4)cc[nH]c3=O)nc12 + CC(C)CCN1c2nc(Nc3cc(F)c(O)c(F)c3)ncc2N(C)C(=O)C1C [BID1870] (first compound 0.2 µM, partner dose 0.2 µM)
cell count (MeWo): 81.5%
cell count (RPMI7951): 111%
cell count (RVH-421): 91.8%
cell count (SkMel28): 107%
cell count (SkMel30): 60.8%
cell count (SkMel5): 94.3%
cell count (UACC257): 79.9%
cell count (UACC62): 97.7%

Cn1nnc2c(C(N)=O)ncn2c1=O [temozolomide] + CCN(CC)CCCCNc1ncc2cc(-c3cc(OC)cc(OC)c3)c(NC(=O)NC(C)(C)C)nc2n1 [PD173074] (first compound 2 µM, partner dose 0.1 µM)
cell count (MeWo): 105%
cell count (RPMI7951): 95%
cell count (RVH-421): 86.1%
cell count (SkMel28): 70.6%
cell count (SkMel30): 90.7%
cell count (SkMel5): 100%
cell count (UACC257): 80%
cell count (UACC62): 85%

— the supplement of paper PMC4604168 (melanoma cell lines)
